Test results published in PubChem BioAssay AID1345083 (National Center for Advancing Translational Sciences (NCATS), 2018).
Among all 94,000 compounds or so, about 6,200 (6.6%) were called active. The shares of active, inactive and inconclusive entries below differ from those in the screen. The call rests on the fitted dose curve; in most records, active means well fitted inhibition curve with a large enough effect; inconclusive means small, poorly fitted or top-dose-only effect; inactive means flat fitted curve, though single readings scatter. Where the call is inconclusive, the potency comes from a doubtful curve fit.

test: Cytotoxic Profiling in HEK 293 Cell Line of Diverse Libraries Using Quantitative High-Throughput Screening; details: HEK 293 viability, ATP luminescence (CellTiter-Glo), 48-72 h; activity change, negative = cytotoxicity: at 115 µM (top of the series) unless noted; series mostly up to 115 µM; further: nearly all actives have a fitted effect of over 60% in size
Method in brief: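 Cytotoxicity was scored by loss of ATP-coupled luminescence (CellTiter-Glo) in HEK 293 cells. Compound treatment ran 48 or 72 hr at 37 degree Celsius, 5% CO2, 95% humidity.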
On the % scale 0 is the no-effect control and ±100 the full control effect; potency means the concentration at half of the fitted maximal effect; tags describe the fitted curve by direction and shape.

Structure (SMILES) | activity change, negative = cytotoxicity | Potency | outcome
O=C(CCC1CCCN(Cc2cccn2-c2cccnc2)C1)Nc1ccccc1F (centres undefined) | inactive: -8.65% | – | –
Cc1ccc(C(=O)N2CCN(c3nccc(Nc4ccccc4Cl)n3)CC2)cc1 | – | active: 22.4 µM | –
O=C(c1ccc(F)cc1)N1CCN(Cc2ccccc2-c2cccnc2)CC1 | – | inconclusive: 56.2 µM [inhibitor, partial curve, poor fit] | –
O=C(c1cccnc1)N1CCCC(n2cc(-c3nc(-c4ccccc4)no3)nn2)C1 (centres undefined) | – | inconclusive: 50.1 µM [inhibitor, partial curve, poor fit] | –
O=C(NC1CCN(c2ccnc3ccnn23)C1)c1cccc(Br)c1 (centres undefined) | – | inconclusive: 11.2 µM [inhibitor, full curve, poor fit] | –
Cc1ccc(CN2C(=O)OC(c3cccc(NC(=O)c4ccc(C)cc4)c3)C2C(=O)NCC(C)C)cc1 (centres undefined) | – | inconclusive: 35.5 µM [inhibitor, full curve] | –
CCN1CCC(CC(=O)N2CCCC3(C=Cc4ccccc4O3)CC2)CC1 (centres undefined) | – | inconclusive: 50.1 µM [inhibitor, partial curve, poor fit] | –
COc1ccc(C(=O)N[C@@H]2CN(c3ccccn3)C[C@H]2CN(C)C)c(OC)c1 | – | inconclusive: 89.1 µM [inhibitor, single point] | –
CS(=O)(=O)N1CCC(OC2CCN(C(=O)Nc3cc(F)ccc3F)CC2)CC1 | – | inconclusive: 35.5 µM [inhibitor, full curve] | –
O=C(NCc1ccccc1F)c1ccc2c(c1)CN(C1CCSCC1)CCO2 | – | inconclusive: 89.1 µM [inhibitor, single point] | –
Cn1ncc2c(-c3ccc([S+](C)(=O)[O-])cc3)cc(C(=O)NCc3ccc(F)cc3)nc21 | – | inconclusive: 22.4 µM [inhibitor, full curve, poor fit] | –
O=S(=O)(Cc1ccccc1)N1CCC2(CC1)CC(OCC1CC1)CCO2 (centres undefined) | – | inconclusive: 50.1 µM [inhibitor, partial curve, poor fit] | –
Cc1cccc(CN2CC[C@@H]3OCC(=O)N(Cc4ccccc4)[C@H]3CC2)c1 | – | active: 100 µM | –
CCCOc1ccc(CN2C[C@@H](CO)[C@H](c3ccncc3)C2)cc1 | – | inconclusive: 39.8 µM [inhibitor, partial curve, poor fit] | –
O=C(c1[nH]nc2c1CCc1ccccc1-2)N1CCC(c2noc(-c3ccncc3)n2)C1 (centres undefined) | – | inconclusive: 35.5 µM [inhibitor, partial curve, poor fit] | –
CCOc1ccccc1C(=O)N1CCC(Cc2nc(-c3ccc(OC)cc3)no2)CC1 | – | inconclusive: 50.1 µM [inhibitor, partial curve, poor fit] | –
COc1cccc(-c2cn3cc(C(=O)NCC(F)(F)F)nc3s2)c1 | – | inconclusive: 44.7 µM [inhibitor, partial curve, poor fit] | –
CNC(=O)C(C)Cn1ccnc1-c1cccc(CN(C)C)c1 (centres undefined) | – | – | inactive
Cc1ccccc1C(=O)N1CCCC(c2nn(-c3ccc(Cl)cc3)c(=O)[nH]2)C1 (centres undefined) | – | inconclusive: 56.2 µM [inhibitor, partial curve, poor fit] | –
CN1CCOc2c(C(=O)NCc3cnn(C)c3)cc(-c3ccccc3O)cc21 | inactive: -22.1% [at 172 µM] | – | –
CCN1C(=O)C(CC(=O)NCc2ccco2)Sc2ncccc21 (centres undefined) | – | inconclusive: 89.1 µM [inhibitor, single point] | –
Cc1cc(=O)n(CC(=O)NCCc2ccc(Cl)cc2)c(N2CCOCC2)n1 | inactive: -26.6% | – | –

Structure (SMILES) | activity change, negative = cytotoxicity | Potency | outcome
O=[S+]([O-])(NC1CCN(c2nccc(Nc3ccccc3F)n2)CC1)c1cccs1 | – | active: 44.7 µM | –
O=C(C1CCCCC1)N1CCCC2(CC(c3ccccn3)=NO2)C1 (centres undefined) | inactive: -1.92% | – | –
COc1ccc(N2CCN(c3ncncc3-c3nc(-c4ccccc4)no3)CC2)cc1 | – | inconclusive: 20 µM [inhibitor, full curve, poor fit] | –
Cn1ncc2c(C(=O)NCC3CCCCC3)cc(C(C)(C)C)nc21 | inactive: -17.5% [at 172 µM] | – | –
COc1ccc(Cn2c(CN(C)S(C)(=O)=O)n[nH]c2=O)cc1 | inactive: 1.29% | – | –
CN(C)S(=O)(=O)N1CCC(c2cc(-c3ccccc3)n[nH]2)CC1 | – | inconclusive: 50.1 µM [inhibitor, partial curve, poor fit] | –
Cn1ncc2c(C(=O)NCc3ccc(Cl)cc3)cc(-c3ccc(C(F)(F)F)cc3)nc21 | – | inconclusive: 89.1 µM [inhibitor, single point] | –
Cc1cc(C(F)(F)F)n(CC(C)CNC(=O)c2cn(CCN)nn2)n1 (centres undefined) | – | inconclusive: 89.1 µM [inhibitor, single point] | –
O=C1CCCCN1CC(=O)N1CCCC(CCc2ccc(F)cc2F)C1 (centres undefined) | inactive: -10.9% | – | –
COc1ccc(F)cc1-c1cccc(C(=O)NCCNC(=O)c2cccnc2)c1 | – | inconclusive: 39.8 µM [inhibitor, full curve, poor fit] | –
C[S+](=O)([O-])c1ccc(-c2nc(C(=O)N3CCOCC3)n3ccncc23)cc1 | inactive: 4.31% | – | –
CC1=C[C@@H](CNC(=O)c2ccccc2)[C@H](C(C)C)C[C@H]1CC(=O)N1CCCC1 | – | inconclusive: 112 µM [inhibitor, single point] | –
CC(C)N1C[C@@H]2C[C@H]1C(=O)N(CC1CC1)c1ccccc1O2 | inactive: -22.4% [at 172 µM] | – | –
O=C(NC1CCc2nn(CC3CC3)c(=O)n2CC1)c1n[nH]c2ccccc12 (centres undefined) | – | inconclusive: 89.1 µM [inhibitor, single point] | –
COc1cccc(CCC(=O)NCCC2CCN(C(=O)Nc3ccc(F)cc3)CC2)c1 | – | inconclusive: 79.4 µM [inhibitor, partial curve, poor fit] | –
O=C(Cn1nc2c(cc1=O)CCCC2)NC1CCCc2c1[nH]c1c(Cl)cccc21 (centres undefined) | – | inconclusive: 100 µM [inhibitor, single point] | –
COc1cccc(Nc2cc(CN3CCC(C)(NC(C)=O)CC3)cc(OC)c2)c1 | – | active: 112 µM | –
CCCCCNC(=O)Cc1csc2nc(C)c(-c3cc(C)n(-c4cccc(C)c4)n3)c(=O)n12 | – | inconclusive: 10 µM [inhibitor, full curve, poor fit] | –
O=C(NCCc1ccccn1)c1ccc(Cn2ccn3nc4c(c3c2=O)CCCC4)cc1 | – | inconclusive: 89.1 µM [inhibitor, partial curve, poor fit] | –
CC(C)CN1C(=O)C(C)(C)[S+](=O)([O-])[C@@H]2CN(c3ccc(OC(F)(F)F)cc3)C[C@@H]21 | – | inconclusive: 39.8 µM [inhibitor, full curve] | –
COc1cccc([S+](=O)([O-])N2CCCC3(CC(c4cccnc4)=NO3)C2)c1 (centres undefined) | – | inactive | –
COc1cc2c(cc1OC)CN(C(=O)C[C@@H]1CCNC[C@@H]1Cc1cc(-c3ccccc3)on1)CC2 | – | active: 79.4 µM | –

Structure (SMILES) | activity change, negative = cytotoxicity | Potency | outcome
CC1CCN(C(=O)[C@@H](C)C2CC[C@@]3(C)CC[C@H](NC(=O)COc4ccccc4)[C@@H](C)[C@@H]3[C@H]2O)CC1 (some centres undefined) | – | inconclusive: 50.1 µM [inhibitor, partial curve, poor fit] | –
CCc1ccc(S(=O)(=O)N2CCCN(C)c3ccccc32)cc1 | – | inconclusive: 50.1 µM [inhibitor, partial curve, poor fit] | –
COc1cccc(-c2cc(CNC(=O)C(c3ccc(F)cc3)N(C)C)no2)c1 (centres undefined) | – | inconclusive: 56.2 µM [inhibitor, partial curve, poor fit] | –
CN1C(=O)CCCCC1C(=O)NCCc1c[nH]c2ccccc12 (centres undefined) | inactive: -12.6% | – | –
O=C(Cn1cccc1-c1nc(-c2ccc(F)cc2)no1)NCCc1ccccc1 | – | inconclusive: 100 µM [inhibitor, single point] | –
CCS[C@H]1CCN2C(=O)c3cc(-c4cc(Cl)ccc4OC)ccc3NC(=O)[C@H]12 | – | inconclusive: 126 µM [inhibitor, single point] | –
CN(Cc1cnc2ccccn12)C(=O)c1cc(COc2ccc(F)cc2F)on1 | – | inconclusive: 20 µM [inhibitor, full curve, poor fit] | –
O=C1Nc2ccccc2CC12CCCN(CC1CC1)C2 (centres undefined) | inactive: -2.65% [at 172 µM] | – | –
O=C(Nc1ccc(Cl)cc1)c1nc2c(o1)CCN(CC1CCCC1)CC2 | – | inconclusive: 100 µM [inhibitor, partial curve, poor fit] | –
COCCNc1ncnc2c1CN(c1ccc(C)cc1)C(=O)N(C)C2 | inactive: 2.92% [at 172 µM] | – | –
CN1CC(=O)N(C2CCCC2)Cc2c1ncnc2N1CCC(N2CCOCC2)CC1 | – | – | inactive
COCCCNC(=O)c1ccc2c(c1)n(Cc1ccc(OC)cc1)c(=O)c1ccnn12 | – | inconclusive: 89.1 µM [inhibitor, single point] | –
Cc1cc(=O)n(CC(=O)Nc2cccc(C(C)C)c2)c(N2CCOCC2)n1 | – | inconclusive: 79.4 µM [inhibitor, single point] | –
Cc1ncccc1-c1nc2cc(C(=O)NC3CC3)ccc2o1 | – | inconclusive: 89.1 µM [inhibitor, partial curve] | –
COCC(=O)Nc1cc(-c2ccccn2)nn1-c1ccccc1 | inactive: 3.97% [at 172 µM] | – | –
CCOc1cccc(-c2noc(-c3ncn4c3COC(c3ccc(F)cc3)C4)n2)c1 (centres undefined) | – | inconclusive: 50.1 µM [inhibitor, partial curve, poor fit] | –
COc1ccc(-c2c(C(=O)NCC(C)C)nc3sccn23)cc1 | – | inconclusive: 56.2 µM [inhibitor, full curve] | –
O=C(COc1ccc(F)cc1)NCC1Cn2cccc2CN1Cc1ccccc1 (centres undefined) | – | inconclusive: 89.1 µM [inhibitor, single point] | –
COc1cccc(CNC(=O)c2cc(-c3cccc(C(F)(F)F)c3)c3nncn3n2)c1 | – | inconclusive: 56.2 µM [inhibitor, partial curve, poor fit] | –
CCOc1ccccc1CN1CCC2(CCN(C(=O)N(C)C)CC2)Oc2ccccc21 | – | inconclusive: 25.1 µM [inhibitor, full curve, poor fit] | –
